Measurements taken from PubChem BioAssay (Tox21).
Several values for one entry are separate records, joined by “and”; a condition that tells them apart may be missing. Identical values can stand only once. Inconclusive results, whose numbers are uncertain, are shown with a selection of clear calls. A potency beside an inconclusive call is a rough fit, not a confirmed value. Activity calls are given as the source filed them. Unless noted, calls come from the whole dose curve; as a rule, active = well fitted cell-killing curve with a large enough effect in the repeat runs (not every such curve was filed as active); inconclusive = weak or mixed curves, or effect the other way; inactive = no such curve, though single readings can be large or run the other way.

Molecular target: Bile acid receptor (Homo sapiens) (UniProt Q96RI1)
UniProt Q96RI1, sequence (Q96RI1 whole entry, looked up): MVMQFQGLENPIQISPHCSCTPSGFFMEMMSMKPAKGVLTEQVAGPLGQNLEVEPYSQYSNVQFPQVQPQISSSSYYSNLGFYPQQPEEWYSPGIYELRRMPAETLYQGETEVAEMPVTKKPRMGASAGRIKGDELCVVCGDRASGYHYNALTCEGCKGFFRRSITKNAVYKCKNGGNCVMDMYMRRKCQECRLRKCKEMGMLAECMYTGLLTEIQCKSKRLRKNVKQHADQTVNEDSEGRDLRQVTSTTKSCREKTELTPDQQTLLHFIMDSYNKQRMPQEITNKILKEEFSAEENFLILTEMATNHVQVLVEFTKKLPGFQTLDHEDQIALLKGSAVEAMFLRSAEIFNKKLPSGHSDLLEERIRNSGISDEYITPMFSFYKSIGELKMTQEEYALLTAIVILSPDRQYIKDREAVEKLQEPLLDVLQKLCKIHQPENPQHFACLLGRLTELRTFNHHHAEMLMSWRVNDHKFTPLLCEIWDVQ
Experiment: qHTS assay to identify small molecule agonists of the farnesoid-X-receptor (FXR) signaling pathway (AID 743220; active = well fitted activation curve with a large enough effect in the signal ratio in the repeat runs, not every such curve was filed as active; inconclusive = weak or mixed curves, or effect the other way; the % refers to the signal ratio; for activation: % is set by controls: 0 for no effect and ±100 for the full control effect)
Conditions: HEK293T FXR-UAS-bla, beta-lactamase FRET ratio, 16 h; activation: at 62.6 µM (top of the series) unless noted
Summary of the method: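 FXR-UAS-bla HEK 293T cells carrying a UAS-driven beta-lactamase reporter were plated for 5 h at 37C/5% CO2, then exposed to DMSO-dissolved Tox21 10K compounds for 16 h at 37C. A LiveBLAzer B/G FRET substrate was loaded for 2 h at room temperature before fluorescence reading.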
Potency is the fitted concentration of half-maximal effect; tags give direction and shape of the fitted curve or compound fluorescence and quenching.

| SMILES | Potency | activation |
| --- | --- | --- |
| CCC(C)(C)c1cc(O)c(C(C)(C)CC)cc1O | inconclusive: 4.36 µM [activator, partial curve] |  |
| CCCCC(CC)CN=C(N)NC(N)=NCCCCCCN=C(N)NC(N)=NCC(CC)CCCC (stereo not drawn) | inconclusive: 29.8 µM |  |
| CCCCCCCCCCCCCC[P+](CCCC)(CCCC)CCCC (tested in a mixture with another compound) | inconclusive: 24.7 µM [full curve] |  |
| C[C@@H](NCCCc1cccc(C(F)(F)F)c1)c1cccc2ccccc12 |  | inactive: -0.708% |
| CCCCCCCCCCCCCCCCCC[N+](C)(C)C | inconclusive: 61.9 µM [cytotoxic] |  |
| Cc1cc(F)ccc1-c1cc(N2CC[C@@H](O)[C@H]2CO)ncc1N(C)C(=O)C(C)(C)c1cc(C(F)(F)F)cc(C(F)(F)F)c1 | inconclusive: 30.4 µM |  |

Tested on: not listed separately
Experiment: qHTS assay to identify small molecule antagonists of the farnesoid-X-receptor (FXR) signaling pathway - cell viability counter screen (AID 743221); note: nearly all actives have a fitted effect of over 50% in size
Conditions: FXR-bla HEK293T viability, CellTiter-Glo luminescence, 16 h; activity change, negative = cytotoxicity: at 62.6 µM (top of the series)
Summary of the method: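 Compound effects on cell number were measured as CellTiter-Glo luminescence in HEK 293T cells expressing FXR-UAS-bla, after 16 h at 37 C with 50 uM CDCA (final).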

| SMILES | Potency |
| --- | --- |
| CCCCCC(=O)O[C@]1(C(C)=O)CC[C@H]2[C@@H]3CCC4=CC(=O)CC[C@]4(C)[C@H]3CC[C@@]21C | inconclusive: 54.6 µM [falling, single point] and inconclusive: 33.5 µM [falling, single point] |
| C=C1C(CCl)(CCl)C2(Cl)C(Cl)C(Cl)C1(Cl)C2(Cl)Cl (stereo not drawn) | inconclusive: 54.3 µM [falling, single point] |
| CCc1cc(Cc2cc(CC)cc(C(C)(C)C)c2O)c(O)c(C(C)(C)C)c1 | active: 11 µM |
| CCCCCCCCCCCCc1ccc(O)cc1 | active: 43.6 µM |
| CC1=C(/C=C/C(C)=C/C=C/C(C)=C\C=O)C(C)(C)CCC1 | inconclusive: 52 µM [falling, single point] |
| Clc1nc(C(Cl)(Cl)Cl)c(Cl)c(Cl)c1Cl | inconclusive: 17.4 µM [falling, single point] |
| CCCCCCCCCCCCN1CCCC1=O | inconclusive: 61.6 µM [falling, single point] |
| C=CC(=O)OCC(CO)(COCC(COC(=O)C=C)(COC(=O)C=C)COC(=O)C=C)COC(=O)C=C | active: 9.65 µM |
| CC(C)(C)c1ccc(O)c(O)c1 | inconclusive: 54.9 µM [falling, single point] |
| C=CC(=O)OCCOCCOCCOCCOC(=O)C=C | inconclusive: 54.4 µM [falling, single point] |
| C[C@H]1O[C@@H](O[C@H]2CC[C@@]3(C)[C@H](CC[C@@H]4[C@@H]3C[C@@H](O)[C@]3(C)[C@@H](C5=CC(=O)OC5)CC[C@]43O)C2)C[C@H](O)[C@@H]1O[C@H]1C[C@H](O)[C@H](O[C@H]2C[C@H](O)[C@H](O[C@@H]3O[C@H](CO)[C@@H](O)[C@H](O)[C@H]3O)[C@@H](C)O2)[C@@H](C)O1 | inconclusive: 0.422 µM [falling, full curve] |
| CC1=CC(=O)c2ccccc2C1=O | inconclusive: 54.9 µM [falling, single point] and inconclusive: 33.5 µM [falling, single point] |
| CC(CN1c2ccccc2Sc2ccccc21)N(C)C (stereo not drawn) | active: 49.5 µM |
| CN(C)C(=O)C1(N2CCCCC2)CCN(CC[C@@]2(c3ccc(Cl)c(Cl)c3)CN(C(=O)c3ccccc3)CCO2)CC1 | active: 32.4 µM |
| [Cl][Bi]([Cl])([c]1ccccc1)([c]1ccccc1)[c]1ccccc1 | active: 10.9 µM |
| C[C@@H](NCCCc1cccc(C(F)(F)F)c1)c1cccc2ccccc12 | inconclusive: 33.5 µM [falling, single point] |
| CCCCCCCCCCCCCCCCCC[N+](C)(C)C | active: 55.1 µM |
| Cc1cc(F)ccc1-c1cc(N2CC[C@@H](O)[C@H]2CO)ncc1N(C)C(=O)C(C)(C)c1cc(C(F)(F)F)cc(C(F)(F)F)c1 | active: 15.3 µM |
| C[C@]12CC[C@@H]3c4ccc(O)cc4CC[C@H]3[C@@H]1CC[C@@H]2OC(=O)CCC1CCCC1 | inconclusive: 54.9 µM [falling, single point] |

Molecular target: Vitamin D3 receptor (Homo sapiens) (UniProt P11473)
UniProt P11473, sequence (P11473 whole entry, looked up): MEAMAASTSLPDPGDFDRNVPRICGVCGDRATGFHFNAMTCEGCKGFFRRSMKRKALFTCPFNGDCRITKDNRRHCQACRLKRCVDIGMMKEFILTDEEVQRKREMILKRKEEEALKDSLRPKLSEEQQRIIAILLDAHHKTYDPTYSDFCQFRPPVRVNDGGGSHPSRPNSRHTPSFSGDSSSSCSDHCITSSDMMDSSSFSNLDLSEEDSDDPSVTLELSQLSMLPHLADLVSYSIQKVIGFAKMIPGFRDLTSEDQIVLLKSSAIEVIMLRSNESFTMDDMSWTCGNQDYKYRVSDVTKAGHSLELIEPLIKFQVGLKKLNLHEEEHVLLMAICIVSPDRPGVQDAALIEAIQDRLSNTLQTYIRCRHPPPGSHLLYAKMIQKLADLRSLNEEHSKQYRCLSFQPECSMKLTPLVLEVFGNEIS
Experiment: qHTS assay to identify small molecule agonists of the vitamin D receptor (VDR) signaling pathway (AID 743222; calls by dose curve; for activation: % is set by controls: 0 for no effect and ±100 for the full control effect)
Conditions: HEK293T VDR-UAS-bla, beta-lactamase FRET ratio, 16 h; activation: at 63.5 µM (top of the series) unless noted
Summary of the method: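 Cells carrying a VDR-driven beta-lactamase reporter are seeded at 2,000 per well and rested 4 h. Compounds in DMSO are added for 16 h at 37C, and FRET substrate fluorescence is measured after 2 h at room temperature.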

| SMILES | Potency | activation |
| --- | --- | --- |
| CCCCCC(=O)O[C@]1(C(C)=O)CC[C@H]2[C@@H]3CCC4=CC(=O)CC[C@]4(C)[C@H]3CC[C@@]21C | inconclusive: 30.7 µM [rising, partial curve] and inconclusive: 29.8 µM [rising, partial curve] |  |
| C=C1C(CCl)(CCl)C2(Cl)C(Cl)C(Cl)C1(Cl)C2(Cl)Cl (stereo not drawn) | inconclusive: 13.6 µM [fluorescent, partial curve] |  |
| CCc1cc(Cc2cc(CC)cc(C(C)(C)C)c2O)c(O)c(C(C)(C)C)c1 | inconclusive: 15.5 µM [falling, full curve, poor fit] |  |
| O=C(CCCCCCCCc1cccnc1)N1CCC(C=C(c2ccccc2)c2ccccc2)CC1 | inconclusive: 19.5 µM |  |
| O=C(Oc1cccc2cccnc12)c1ccccc1 | inconclusive: 1.33 µM [rising, full curve, poor fit] |  |
| CN(C)c1ccc(SC#N)cc1 |  | inactive: -6.68% |
| CCCCCCCCCCCCc1ccc(O)cc1 | inconclusive: 17.4 µM [falling, partial curve, poor fit] |  |
| CCCCCCCCCOC(=O)c1ccc(O)cc1 | inconclusive: 54.2 µM [activator, single point] |  |
| CC1=C(/C=C/C(C)=C/C=C/C(C)=C\C=O)C(C)(C)CCC1 | inconclusive: 41.3 µM [rising, partial curve] |  |
| CC(C)(C)c1ccc(O)c(O)c1 |  | inconclusive: -18.7% [at 81.1 µM] |
| C=CC(=O)OCCOCCOCCOCCOC(=O)C=C | inconclusive: 49.2 µM [fluorescent, partial curve, poor fit] and inconclusive: 61.1 µM [single point] |  |
| COc1cc(-c2nc(NC(=O)c3cc4cc(C)cc(C)c4n3CC(=O)O)sc2CCC2CCCCC2)c(OC)cc1Cl | inconclusive: 8.96 µM [fluorescent, partial curve, poor fit] |  |
| CCCCC(CC)CN=C(N)NC(N)=NCCCCCCN=C(N)NC(N)=NCC(CC)CCCC (stereo not drawn) | inconclusive: 33.5 µM [activator] |  |
| CCCCCCCCCCCCCC[P+](CCCC)(CCCC)CCCC (tested in a mixture with another compound) |  | inactive: 3.67% [at 81.1 µM] |
| [Cl][Bi]([Cl])([c]1ccccc1)([c]1ccccc1)[c]1ccccc1 | inconclusive: 2.44 µM [rising, partial curve] |  |
| CCCCCCCCCCCCCCCCCC[N+](C)(C)C | inconclusive: 19.6 µM [rising, single point] |  |
| Cc1cc(F)ccc1-c1cc(N2CC[C@@H](O)[C@H]2CO)ncc1N(C)C(=O)C(C)(C)c1cc(C(F)(F)F)cc(C(F)(F)F)c1 |  | inconclusive: 17.7% |
| C[C@]12CC[C@@H]3c4ccc(O)cc4CC[C@H]3[C@@H]1CC[C@@H]2OC(=O)CCC1CCCC1 |  | inconclusive: 35.6% |
